Data as given in ChEMBL document CHEMBL4888484, “Replenishing the malaria drug discovery pipeline: Screening and hit evaluation of the MMV Hit Generation Library 1 (HGL1) against asexual blood stage Plasmodium falciparum ,using a nano luciferase reporter read-out” (2022).
The whole screen tested about 150,000 compounds, of which about 540 (0.36%) showed an effect of 50% or more. The list shows a part of the results.

The molecules below were run on Plasmodium falciparum (assay: Primary screen in NF54 nanoGlo assay, in single point, at 2uM, 72h; a lower Z score goes with more inhibition). Details: timepoint 72 hour.
Format: functional, Erythrocyte

Compound	% Inhibition [%]	Z score
Cc1ccc2nc3c(N(C)C)[nH]cnc-3c2c1	-6	1.11
O=C1NC[C@H]2CN(Cc3ccc(OC(F)(F)F)cc3)CCN12	19	-2.25
COc1ccc(-c2ncc(Cl)cn2)c(OC)n1	1	-0.14
COc1cc(CN2CCOC(C)(C)C2)ccc1OC[C@@H](O)CN1CCCC1	-6	0.91
COC[C@H]1CCCN(Cc2cccc(OC)c2C)CC1	-6	0.62
COc1ccc(-c2c(C(=O)NC3CC3)nn3c(C)cc(C)nc23)cc1S(=O)(=O)N1CCCCC1	-6	1.11
CCOc1ccc(NC(=O)N2C[C@H]3CC[C@@H](C2)[C@H]3OC)cc1C(F)(F)F	-10	0.98
O=C(NC[C@@H]1Cc2ccccc2CO1)NC1CCCC(N2CCCC2=O)C1 (stereo not given in full)	1	-0.09
CCCCC(N)C(=O)N1CCCC(OC)C1 (stereo not given)	-4	0.67
CN1CC[C@@H]2CN(C(=O)c3ccc4sccc4c3)C[C@]2(C(=O)O)C1	-10	1.86
CCC#CCN1CCC[C@H](CN2CCCC2=O)C1	11	-1.81
O=C1NC[C@H]2CN(CC=Cc3ccc(F)cc3)CCN2C1=O	1	-0.04
CCN1CCc2c(c(CN(CC(C)C)C(C)=O)nn2-c2ccccc2)C1	6	-1.08
O[C@H]1CC[C@H](Nc2ncc(Cl)cc2F)CC1	7	-0.85
Cc1nnc(CN(C)CCN(C)C2CCCC2)o1	9	-1.11
COc1nccc(N(C)C)c1NC(=O)CCCc1ccccn1	-5	0.66
Cc1cc(S(=O)(=O)NC2CCCC2C(N)=O)sc1C (stereo not given)	0	0.05
NC(=O)c1ccccc1OCC#CCNC(=O)c1cncc(Br)c1	-10	1.27
Cc1cc2c(cc1C)N(CC(=O)Nc1cc(Cl)ccc1C)C(=O)CC(c1cccs1)=N2	0	0.04
CC(CO)(CO)NC(=O)c1ccc(Br)cc1	32	-1.28
Fc1cccc(F)c1-n1c(COc2ccc(Cl)cc2)csc1=S	34	-4.36
CC1(C)C[C@@H](NC(=O)c2cn(CCCc3ccccc3)nn2)CCO1	-1	0.11
CCc1nn(C[C@H](O)c2ccc(Cl)cc2)c(=O)c(C#N)c1CC	-1	0.17
Cc1n[nH]c(C2CN(CC(O)COCc3ccco3)CCO2)n1 (stereo not given)	0	0.04
O=C(NCC1CCCO1)C1Cc2cc(C(F)(F)F)ccc2N2CCN(c3ccccc3F)CC12 (stereo not given)	-18	1.98
Cc1cccc(NC(=O)N2CCC(Cc3nncn3Cc3ccccc3)CC2)c1	5	-0.53
CCCn1c(=O)c(C(=O)N(CC)CC)nn(-c2ccc(Cl)cc2)c1=O	-6	0.98
O=C(CN1CCCC1)N(CC(F)(F)F)c1ccc(Cl)cc1	-11	1.06

Compound	% Inhibition [%]	Z score
CC[C@@H](C(=O)Nc1nccs1)N(C)Cc1ccnc(C)c1	1	-0.12
CCS(=O)(=O)c1cc(Cl)cc(CNCc2ccn(C)n2)c1	-2	0.22
CCOc1ccc(-c2noc(CN3N=NC4C(=O)N(c5ccc(CC)cc5)C(=O)C43)n2)cc1OC (stereo not given)	1	-0.14
CC(C)N(C)c1nc(N2CCN(c3ccccc3)CC2)nc2c1CN(C(=O)c1ccc(F)cc1F)CC2	-8	0.76
O=C1N[C@@H](c2cc3c(cc2Br)OCO3)Nc2c1sc(=S)n2-c1ccccc1	1	-0.17
O=C(Cn1cnc2ccccc2c1=O)NCc1ccc(-c2ccoc2)nc1	7	-0.92
Cc1cc(C)c2ncn(CCCc3nnn[nH]3)c(=O)c2c1	-10	1.82
Fc1cc(F)cc(CN2C[C@@H](n3ccnc3)Cc3ccccc32)c1	7	-0.92
C[C@@H]1CN(CCCc2cn[nH]c2)C[C@H](C)O1	-11	2.23
O=C1NCCCc2[nH]c(-c3noc(C4CC4)n3)nc21	-9	1.08
Cc1cccc2oc(CNc3cc([C@H]4C[C@@H](O)C4)nc(N)n3)nc12	-7	1.15
CC1C(NC(=O)C2CC(C)(O)C2)CC(=O)N1Cc1ccccc1 (stereo not given)	-1	0.16
CC(C)(CNC(=O)N1CC[C@H](Cc2nccs2)C1)c1cccnc1	-6	0.93
CCOCCCNC(=O)c1cn2c3c(cccc3c1=O)C[C@@H]2C	-3	0.39
O=C(CC1CCCCCC1)N1CCCN(C(=O)c2ccc[nH]2)CC1	-14	1.36
CCc1nnc(CN(C(=O)Nc2cccc3c2CCC3)C(C)C)o1	-21	1.92
CN(C[C@H]1CCCO1)c1nccc(C2CCCC2)n1	6	-0.71
O=C(Nc1ccc(OCc2ccccc2)cc1)C1CCC1	-11	1.53
c1ccc(-n2ccc(CN3CCC[C@H]3c3ccsc3)n2)cc1	-35	4.08
CC[C@H](O)c1cc2n(n1)CCN(C(=O)c1ccncc1Cl)C2	-2	0.33
CCOC[C@H]1CCCN(C(=O)Nc2ccc(N3CCCC3)nc2C)C1	7	-1.01
Cc1cccc2c(=O)n(CC(=O)N(C)[C@H]3CC(=O)N(Cc4ccccc4)C3=O)cnc12	1	-0.18
COCCN(C)S(=O)(=O)NCC1CCC1	-8	0.97
Cc1ccc2c(Nc3ccc(S(C)(=O)=O)cc3)c(C(=O)N3CCCC3)cnc2n1	-5	0.77
Cc1ccc2c(c1)CN(C(=O)COCc1cc(C)on1)C(C)(C)C2	-17	2.23
O=C(COc1ccc2c(c1)OCO2)NCc1cccnc1	-5	0.94
COC(=O)CNC(=O)N[C@@H](C)CCc1ccc(OC)cc1	-4	0.45
